We go through 85 compounds from ChEMBL document CHEMBL4888484, “Replenishing the malaria drug discovery pipeline: Screening and hit evaluation of the MMV Hit Generation Library 1 (HGL1) against asexual blood stage Plasmodium falciparum ,using a nano luciferase reporter read-out” (2022).

The whole screen tested about 150,000 compounds, of which about 540 (0.36%) showed an effect of 50% or more. The list shows a part of the results.

The subject of this assay is Plasmodium falciparum. The assay is described as follows: Primary screen in NF54 nanoGlo assay, in single point, at 2uM, 72h; a lower Z score goes with more inhibition. Type of assay: functional, Erythrocyte. The settings on record: timepoint 72 hour.
Take `C#CCN(CC#N)C(=O)CCc1ccsc1`: the “% Inhibition” value is listed as 13% and the Z score was -2.33.
Consider `Cc1cc(C(=O)Nc2ccn(Cc3cccc4ccccc34)n2)n2ncnc2n1`, for which the “% Inhibition” value was 28% and the Z score is listed as -3.2.
Take `CCn1nc(CO)c2c1CCN(C(=O)c1cnn(Cc3ccccc3)c1)C2`: the “% Inhibition” value is recorded as -11% and the Z score is on record as 2.04.
Take `O=C(c1cccc(S(=O)(=O)N[C@H]2C[C@@H]2c2ccccc2)c1)N1CCCC1`: the “% Inhibition” value is -7% and the Z score is recorded as 0.98.
As to `Cc1nc(-c2ccccc2F)sc1[C@H](C)NC(=O)Nc1cccc(-c2nnco2)c1`, the “% Inhibition” value is recorded as -1% and the Z score is 0.15.
In the case of `O=C(O)C1CN(C(=O)C2CC=CCC2c2nc3ccccc3s2)CCO1` (stereo not given), the “% Inhibition” value is given as -3% and the Z score is 0.43.
Consider `CC(C)[C@@H](C(=O)NCCS(N)(=O)=O)c1cccc(Cl)c1`, for which the “% Inhibition” value was 1% and the Z score is given as -0.1.
`O=C(COc1c(Cl)c(Cl)c(Cl)c(Cl)c1Cl)N1CCC(c2nc3ccccc3o2)CC1`: the “% Inhibition” value is -11% and the Z score is 1.52.
With `C[C@H](NC(=O)N1CC(CO)C1)C1CCC(F)(F)CC1`, the “% Inhibition” value was found to be 5% and the Z score was -0.98.
For `CC(C)CN(CC(=O)N(Cc1ccco1)C[C@H]1CCCO1)C(=O)Cc1ccccc1`, the “% Inhibition” value is on record as -9% and the Z score worked out at 1.7.
For `CCOC(=O)c1cc(S(=O)(=O)N2CCC[C@H]2C(=O)Nc2cccc3c2CCCC3)cn1C`, the “% Inhibition” value is recorded as -5% and the Z score is on record as 0.97.
Consider `CCn1c(C)nc2cc(NS(=O)(=O)c3ccccc3)cc(C(=O)N(C)Cc3ccsc3)c21`, for which the “% Inhibition” value was found to be 6% and the Z score is given as -1.16.
Consider `CCNc1ncc(C(=O)N(C)Cc2ccoc2)cn1`, for which the “% Inhibition” value was -5% and the Z score came to 0.88.
On to `Cc1ccc2[nH]c(=O)cc(C(=O)N3CCCCCCC3)c2c1`, for which the “% Inhibition” value is listed as -7% and the Z score came out at 0.71.
As to `O=C([C@@H](O)Cc1c(F)cccc1Cl)N1Cc2cccc(Cl)c2C1`, the “% Inhibition” value is -14% and the Z score stood at 1.17.
The corresponding values for `O=C(CCC1CCCC1)Nc1cnn(-c2ncncc2N2CCOCC2)c1` are -1% and 0.09.
On to `Cc1cc(C(=O)NCCc2cccnc2)no1`, for which the “% Inhibition” value is -12% and the Z score is 2.12.
The corresponding values for `CCOc1ccc2nc(-n3nc(C)c4c3NC(=O)C[C@@H]4c3ccncc3)sc2c1` are -14% and 2.18.
`Cc1nc2cc(CC(=O)NCc3cncn3C3CC3)ccc2[nH]1`: the “% Inhibition” value is recorded as -7% and the Z score was 1.25.
In the case of `Cc1ccc(NC(=O)COC(=O)CN2C(=O)COc3ccccc32)cc1`, the “% Inhibition” value is given as 4% and the Z score is -0.69.
As for `CCC1CN(c2cc3nncn3c(C)n2)CC(CC)O1` (stereo not given), the “% Inhibition” value was 4% and the Z score is listed as -0.71.
The corresponding values for `Cc1nnc(CN(C)C(=O)c2ccc(N(C)C)cc2)o1` are -10% and 1.36.
Regarding `CC(=O)Nc1ccc(-c2c(-c3ccc4c(c3)OCO4)nn(-c3cc(C)ccc3C)c2OC(C)=O)cc1`, the “% Inhibition” value amounted to 5% and the Z score is -0.99.
The corresponding values for `Cc1cc(C)c(C#N)c(N2CCC3(CCC(=O)N(CCc4c[nH]cn4)C3)CC2)n1` are -18% and 2.04.
Consider `CC(C)(C(=O)N1CC(=O)N(CCC(F)(F)F)C1)C1CCC(O)CC1` (stereo not given), for which the “% Inhibition” value is given as -11% and the Z score is 1.28.
With `COCCN(Cc1ccsc1)S(=O)(=O)CCc1ccc(OC)cc1`, the “% Inhibition” value amounted to 1% and the Z score is -0.19.
On to `CCCc1nc(N[C@@H](CC)c2nc(C)c(C)s2)c2cnn(C)c2n1`, for which the “% Inhibition” value is recorded as -20% and the Z score is given as 1.83.
With `Cc1cc(C)c(-c2noc(C)n2)c(NC(=O)c2ccc(C)c(C)c2)n1`, the “% Inhibition” value is listed as -5% and the Z score is reported as 0.6.
`O=S(=O)(N1CCOCC1)N1CCc2ccccc21`: the “% Inhibition” value is -9% and the Z score is listed as 1.2.
Take `O=C(c1nnc(-c2csc(S(=O)(=O)NC3CCCC3)c2)o1)N1CCCCC1`: the “% Inhibition” value is listed as -5% and the Z score came out at 0.62.
Consider `CCC(C)(NC(=O)C1CCOc2ccc(Cl)cc21)c1nccs1` (stereo not given), for which the “% Inhibition” value is -8% and the Z score was found to be 1.36.
For `O=C(c1nc(C2CCCC2)nc2c1OCCO2)N1CCCC1`, in that order: -8% and 1.11.
Turning to `C[C@H](Oc1ccc(NC(=O)c2n[nH]c3c2CCCC3)cc1F)C(=O)O`, the “% Inhibition” value is on record as -2% and the Z score is 0.25.
As for `Cc1cnc2c(c1Nc1ccc(Nc3ccccc3)cc1)c(=O)n(C)c(=O)n2C`, the “% Inhibition” value was 9% and the Z score was -1.2.
As to `COC[C@H]1[C@H](NC(=O)c2ccc(OC)c(F)c2F)[C@H]2CCO[C@H]21`, the “% Inhibition” value was -5% and the Z score is given as 0.51.
As for `O=C(c1ccc(F)cc1)N1C[C@@H]2C[C@H](C1)c1c(-c3ccc(OC(F)(F)F)cc3)ccc(=O)n1C2`, the “% Inhibition” value is -1% and the Z score stood at 0.15.
The corresponding values for `C=CCOC(=S)NC(=O)Cc1ccccc1Cl` are 36% and -1.06.
As to `Cc1ccccc1C[C@@H](C1CCN(C(=O)CCCc2ccccc2)CC1)N(C)C(=O)Cn1cccn1`, the “% Inhibition” value is given as -4% and the Z score amounted to 0.83.
For `C[C@H](NC(=O)Nc1ccc(C(N)=O)c(Cl)c1)C1=CCCCC1`, in that order: -7% and 1.38.
The corresponding values for `Cc1cc(Br)ccc1NC(=O)[C@@H]1CCO1` are 9% and -1.24.
The corresponding values for `C[C@H]1c2ccsc2CCN1C(=O)c1ccc(C(=O)O)s1` are -25% and 3.95.
For the compound `COc1ccc(NC(=O)Cc2nc(Cc3ccc(F)cc3)n[nH]2)cc1`, the “% Inhibition” value is on record as -4% and the Z score worked out at 0.66.
Consider `O=C(NC1CCOCC1)N1CCC[C@@H]1CO`, for which the “% Inhibition” value was -2% and the Z score is on record as 0.21.
The corresponding values for `CNC(=O)NCC1CCC2(CCOCC2)C1O` (stereo not given) are -15% and 2.08.
In the case of `CO[C@@H](CNS(=O)(=O)c1ccc(C)cc1Br)C(C)C`, the “% Inhibition” value worked out at 0% and the Z score is 0.03.
As to `COc1ccccc1-c1noc(-c2c(C)nc3ccccn23)n1`, the “% Inhibition” value is given as -13% and the Z score was determined as 1.73.
Turning to `O=C(c1c[nH]c(=O)c(Cl)c1)N1CCC[C@H]1c1nc(-c2ccccc2)no1`, the “% Inhibition” value is listed as -7% and the Z score was found to be 0.92.
On to `C#CC(CC)(CC)NC(=O)COc1ccc(Cl)cc1`, for which the “% Inhibition” value came out at 6% and the Z score is reported as -0.73.
The corresponding values for `COc1ccc2cc1Oc1cccc(c1)CO[C@H]1CCN(C(=O)c3cccnc3)C[C@H]1NC(=O)CC2` are -15% and 2.79.
For `COC(C)CS(=O)(=O)NC1CCC(C)CC1C` (stereo not given), the “% Inhibition” value is listed as -9% and the Z score is reported as 1.
For `Cc1nnc(-c2ccccc2-c2nc(-c3ccccn3)no2)o1`, the “% Inhibition” value was -13% and the Z score came out at 1.9.
Regarding `O=C(CC1CC1)N1C2CCC1CC(n1ccnn1)C2` (stereo not given), the “% Inhibition” value is -5% and the Z score came out at 0.76.
For `c1ccc2c(c1)CCN2CCNC1CCN(c2ccc3c(c2)OCO3)CC1`, in that order: -8% and 1.24.
For `Cc1sc2ncnc(N[C@H]3CCN(Cc4ccccc4)C3)c2c1C`, in that order: -12% and 1.49.
Turning to `CC(C)CN(Cc1cnn(C)c1)C(=O)c1cccc(-c2ccc(=O)n(C)n2)c1`, the “% Inhibition” value was -13% and the Z score was determined as 2.54.
`O=c1cc(-c2ccccc2)ncn1Cc1cccc(Cl)c1`: the “% Inhibition” value is on record as 6% and the Z score was -0.73.
Take `CCN1CCN(C(=O)c2sc(C)cc2OC)[C@H]2CS(=O)(=O)C[C@H]21`: the “% Inhibition” value is reported as 11% and the Z score was -1.55.
`O=C(C[C@@H]1COC2(C1)CN(S(=O)(=O)c1ccc(F)cc1F)C2)N1CCOCC1`: the “% Inhibition” value is listed as -5% and the Z score is listed as 0.73.
Take `CN1CCN2CCN(Cc3ccc4c(c3)CCO4)C[C@H]2C1=O`: the “% Inhibition” value is on record as -1% and the Z score is listed as 0.06.
In the case of `CC1(C)CCC[C@@]1(O)CNC(=O)c1ccc(OC(F)F)cc1F`, the “% Inhibition” value was -3% and the Z score is 0.45.
As to `Cc1cc([C@H](C(=O)O)N(C)C/C=C/c2ccccc2)ccc1F`, the “% Inhibition” value is recorded as -6% and the Z score amounted to 0.72.
In the case of `CCCN(CC1CC1)C(=O)[C@@H]1CCCCC(=O)N1Cc1cccc(OC)c1`, the “% Inhibition” value is listed as -8% and the Z score worked out at 1.34.
The corresponding values for `O=C(COc1ccccc1)NCC(=O)Nc1ccc2[nH]c(=O)[nH]c2c1` are -9% and 1.07.
For `COCC1(C(=O)N2CC[C@H](C3CCCCC3)C2)CCC1`, in that order: -19% and 2.24.
Consider `Cc1ccc(Cl)cc1N1C[C@@H](C(=O)Nc2nonc2C)CC1=O`, for which the “% Inhibition” value is -3% and the Z score is recorded as 0.38.
With `CC(C)(C)C1CNC(=O)C1C(=O)Nc1cccc2nsnc12` (stereo not given), the “% Inhibition” value is -6% and the Z score is 0.95.
The corresponding values for `CCOC1CC(O)C12CCN(c1nc(C)ns1)CC2` (stereo not given) are -10% and 1.28.
The corresponding values for `COCCc1nc(-c2cccc3c(C)c(C)[nH]c23)n(C[C@H]2COCCO2)n1` are -20% and 2.04.
Regarding `NC(=O)Cc1nc(C2CCC2)n(-c2ccc(OC(F)(F)F)cc2)n1`, the “% Inhibition” value was -9% and the Z score is 1.12.
In the case of `Clc1ccc2nc(CN3CCO[C@@H](Cn4cccn4)C3)cn2c1`, the “% Inhibition” value was -11% and the Z score is 1.14.
For `COc1cc(C(=O)Nc2cnc3ccccc3c2)ncn1`, in that order: -1% and 0.22.
For the compound `COc1c[nH]c(C(=O)Nc2ccc(C(F)(F)F)cn2)cc1=O`, the “% Inhibition” value is reported as -15% and the Z score is 1.94.
Regarding `O=c1[nH]nc([C@H](O)c2ccccc2)n1Cc1cccs1`, the “% Inhibition” value was -11% and the Z score is on record as 1.46.
In the case of `Cc1nc(CN2CCC[C@H]2C(=O)Nc2ccc(-c3cscn3)cc2)c[nH]1`, the “% Inhibition” value is given as -2% and the Z score was determined as 0.28.
In the case of `C[C@H]1[C@H](c2ccccc2)OC(c2ccccc2O)N1C` (stereo not given in full), the “% Inhibition” value is reported as 5% and the Z score is -0.75.
As for `CS(=O)(=O)n1c(N)nc2ccccc21`, the “% Inhibition” value is given as -6% and the Z score is listed as 0.83.
For `CCN(CC1CCOCC1)c1cc(C2CCNCC2)nc(C)n1`, in that order: 3% and -0.59.
The corresponding values for `CCOC(=O)CCC(=O)NCCn1cc(-c2ccncc2)cn1` are -3% and 0.42.
With `CC(NC(=O)C1C2CCC(C2)N1S(=O)(=O)c1ccccc1)c1ccccc1` (stereo not given), the “% Inhibition” value is -1% and the Z score is on record as 0.17.
In the case of `O=C(Cc1nnc(-c2ccsc2)o1)Nc1ccccc1F`, the “% Inhibition” value is given as -5% and the Z score stood at 0.52.
`c1coc(CNc2nnc(C3CCCCC3)o2)c1`: the “% Inhibition” value is reported as -7% and the Z score amounted to 0.82.
As for `Nc1ccccc1C(=O)N[C@H]1CC[C@H](O)CC1`, the “% Inhibition” value is listed as -10% and the Z score was 1.46.
Regarding `CC[C@@]1(C)Oc2ccc(NCc3ccccn3)cc2O1`, the “% Inhibition” value was -15% and the Z score came to 1.68.
Regarding `O=C(NCCN1CCCOCC1)N[C@@H](C1CCCC1)C(F)(F)F`, the “% Inhibition” value is -3% and the Z score is listed as 0.41.
For `CC(C)CCN1C(=O)[C@@H]2C(C(=O)Nc3ccc(C(C)C)cc3)[C@@H]3C=C[C@]2(O3)C1C(=O)NC1CCCCC1C` (stereo not given in full), the “% Inhibition” value stood at 6% and the Z score was -0.99.

For orientation: % Inhibition means the drop in the measured response relative to a control, in per cent.
